The source gives no read counts; variants with many changes may rest on few reads.
B1: LINE1-mini (parent)
chain: GGCAGAGCUCAACACAGCGUGGCAAAGUGGCUGUGGCUAGACUGCC

Variants of: B1
Assay: self-cleavage, relative activity (ratio to wild type); higher = more cleavage; in vitro, sequencing; the parent is a self-cleaving ribozyme

Row | Variant | self-cleavage
1 | U9A G19U G40U | 0.03
2 | G5A G22U G35U A41C C42G | 0.03
3 | G7C U9C G19C U20A A24U A25C G29C A39G | 0
4 | C10A G21U U34G | 0.01
5 | G2U C18A C42A | 0.01
6 | G7C U20G G36C | 0.04
7 | C3G G5A C18A C31U | 0.05
8 | U9A A12U C15U | 0.3
9 | C8U G27A G29C G30U A39U U43A | 0.01
10 | C10U A11U C13A U34A U38C G40U | 0.01
11 | A6G A26C G44U C45U | 0.01
12 | C8U G19C U20G A25G G33C | 0.11
13 | C3A U9A C18A G22U C23G C42U | 0.22
14 | C10A U32C G33U C45U | 0.01
15 | G1A C15G G21C G27U C37A G44U | 0.01
16 | C8G C10A G29A A41C | 0.01
17 | A4C C10A A12C G29C | 0
18 | C3A A11G G22A C42A | 0.02
19 | A14G C18U G29C | 0.11
20 | C8A C18U C23A G36A A41U | 0.4
21 | A4G U9A C15G U34A | 0.28
22 | G1A U9C A25U A26U U28G U43A | 0.05
23 | G21A G36A C42A C45A | 0.12
24 | G7U C8U A16U G27A A39U | 0.15

Row | Variant | self-cleavage
25 | G1U G7A G21U G36C | 0.02
26 | A4G A6C G17A C31A C37U | 0.07
27 | A4C A16C G22U G29C | 0.26
28 | A6U U9A G29U C31A | 0.03
29 | C3A C10A G17A G21U U38A G40C U43C C45A | 0.02
30 | G1C G29A U32C A39U | 0.01
31 | G22C A39C A41G | 0.03
32 | G17C G19U U20G G21U | 0.76
33 | U9C G30C C46A | 0.03
34 | C18U A26G G33U | 0.03
35 | C8G A12G G27U | 0.01
36 | G7A G36A A41U | 0.01
37 | C23U A25G C37A | 0.01
38 | C18A A26U C46G | 0.15
39 | A14U C15G C23U G27U C31A | 0.02
40 | A11C A26U C31U U43C | 0
41 | C3U C13G U28A G30U | 0.07
42 | G5C A14U C15G U38A U43C C45U | 0.03
43 | A6G A11C G17U A25C U38C C42U | 0.01
44 | A16G G29C C31A C42G | 0.01
45 | G2C A26U G27C | 0.03
46 | G7U C8G U20A G29A | 0.2
47 | G22U G30C C42A | 0.03
48 | C8G C13U G40C C45G | 0.05

Row | Variant | self-cleavage
49 | G17A G22A A39U | 0.11
50 | G1U G5U U28C C31G A41C | 0.01
51 | G5U C42A C46G | 0.16
52 | G19U U20C G27U U28A | 0.32
53 | A16G C37A C45U | 0.01
54 | A14C G29A G30U C42U | 0.13
55 | G19U U32A G35A G36A G40C C46A | 0
56 | G5A U20A G35C | 0.02
57 | A6C G17U G22U U32G G35A A39C | 0.05
58 | U9C A11C C23U U38A | 0.02
59 | U9A C10G A24C C37U | 0
60 | C3U C8G G19C U20A | 0.18
61 | G5C C15A U34A | 0.08
62 | A4C U20G C23U G44C | 0.06
63 | G5A C13A G21C A39G | 0.06
64 | A16C G19A C37G | 0.02
65 | G17U G22C G33C U34C | 0.02
66 | A4C U9C G29A C37A | 0.14
67 | C8U C23U A26U G33C G36C | 0.1
68 | C23U A25C G30A | 0.65
69 | A16G U20G G33U | 0.01
70 | G1A U9A C15U U20A C31G | 1.12
71 | C3A A26C U43A | 0.14
72 | C8U G30U G35C C37A | 0

Row | Variant | self-cleavage
73 | G5U U32A U38C | 0.07
74 | G1C A4C C18A G33C U38C | 0.01
75 | G7U C8G A12C A26U G44U | 0.02
76 | C3A G7A U9G | 1.02
77 | A12C A14G C18A C31G C42A | 0.02
78 | G2U A6G C8A U28C G29C | 0.04
79 | U9C A26C U28A G30C G35U G40A | 0.23
80 | G27A G36C C45A | 0.03
81 | G1U C3U C13U A25G G30U | 0.69
82 | U9A A14U C42G C46U | 0.21
83 | A4C C8A C13A A24C G30A U38G | 0.12
84 | C8A G22C G27A C37G | 0.05
85 | G22A A25G G33C U34A | 0.01
86 | C18A G21C G36C G44C | 0.05
87 | G30U G35C A41U | 0.04
88 | C10A G19U G33U | 0
89 | G5U G7U U20G A26U U32G A39G | 0.29
90 | G2A A11C G22U G29C G36A U43C C46U | 0.02
91 | C15A A24C U34G U38C | 0.02
92 | G5A G22C G27A G30U U38A G44U | 0.02
93 | G1U U9A U32A | 0.03
94 | U32A G40A C46A | 0
95 | C13A C15A G17U C18U U28C C45A | 0.04
96 | G1C G7U A16U U28C U38A | 0.03

Row | Variant | self-cleavage
97 | A14G G27A C37G G44C | 0.05
98 | C8A A26U G35A C46A | 0.99
99 | G5C G7A C8A G44C | 0.35
100 | G1U A41U U43A | 0.1
101 | C3U G22A C23U A41U C46A | 0.36
102 | G2C G5U U9A G40A | 0.01
103 | G1C G22U C45A | 0.2
104 | A12U A26U U28A C45A | 0.57
105 | G2A A12C G36U | 0.06
106 | A11C C15U G19A G27C U32C G33A | 0.03
107 | C8A C23U A26U | 0.46
108 | U20A U34C A39G | 0.02
109 | C15A A16C C18G C46G | 0.01
110 | C8A A11U C23A A26G G29C | 0.01
111 | C10A A14U A26C G27C | 0.02
112 | U9A C10G C15A C31A C45A | 0.03
113 | C3U C13G A39U | 0.05
114 | G2A C8U A24U U28G | 0.2
115 | C8G A24C U28G G35C C45A | 0
116 | C10A G21A C42U G44U | 0
117 | G7C C8U A12G G19C C37A | 0.02
118 | G7A A14C U20C A26C | 0.02
119 | G21U G22C C31G | 0.11
120 | C23A C37G C42A | 0.01

Row | Variant | self-cleavage
121 | C15G G17C G36U | 0.09
122 | A6U A25U U32G C45G | 0
123 | G33C A41C C45U | 0.01
124 | C10A G17A G40U | 0.01
125 | C3G A14U G35C | 0.07
126 | C10U G19A G27U C42A | 0.04
127 | C3G G30A C31A A39G | 0.03
128 | C13A G22A C31A U43A | 0.02
129 | C8A C10U A16U U20G | 0.13
130 | A4C G7C A11C G33C U43A | 0
131 | C3U U9A G36C | 0.03
132 | G27C U34G C42U | 0.03
133 | C10G G27U U34A C45U | 0.03
134 | C3A C13A A14G | 0.04
135 | C3G U28G U32G G35C | 0.01
136 | G5U U9A C46A | 0.12
137 | C3U C31G C37U | 0.27
138 | A12C A16G C23G A24U | 0.02
139 | A11G A12U C13A G19A G29A | 0
140 | A4G A6U A14G A16G A25G U28G | 0.06
141 | C15A U32A C46U | 0.02
142 | C10U C31A C37U C46A | 0
143 | A4G C13U G35U | 0.05
144 | G2A C13G U28G U32A | 0.03

Row | Variant | self-cleavage
145 | G5U A39U C42A U43G | 0.08
146 | A25C C31U C45G | 0.03
147 | C13G G22A C37G C42A C46A | 0.04
148 | C8A A11C C18A G33A | 0.05
149 | G2A A4C A24U C37G U38G | 0.03
150 | C10A A26C A39C C46A | 0.01
151 | A4U A6C A24G | 0.05
152 | A16C G19U C23A G27A G35A | 0.25
153 | G5A C18G G27A G40A | 0.12
154 | G21A C23U A26C U34A U38A | 0.03
155 | G30A C31G A39C | 0.03
156 | C18A U32A C42U | 0.06
157 | G27U C31U G35U G40A | 0.01
158 | C8A G17U G19A A25U G29U | 0.16
159 | C8A G21A U32C | 0.57
160 | A6G C15G C37U A39U | 0
161 | G21A G29C G30A | 2.02
162 | A4C G40C C46U | 0.06
163 | C10G C13A G29A | 0.02
164 | A12C G27C U32A G36C | 0.01
165 | G1C G7U A12C G27U | 0.01
166 | C31A U34A G36U | 0.01
167 | C8A A24U A25C U38C U43G | 0.04

Reference: the RNAGym collection of RNA variant scans (doi:10.7554/elife.90254)
